These results are taken from ChEMBL document CHEMBL4888484, “Replenishing the malaria drug discovery pipeline: Screening and hit evaluation of the MMV Hit Generation Library 1 (HGL1) against asexual blood stage Plasmodium falciparum ,using a nano luciferase reporter read-out” (2022).

Structures are written as SMILES. Hit rate of the full screen: of about 150,000 compounds, about 540 (0.36%) showed an effect of 50% or more. This is one part of the list.

As a reminder, the % Inhibition is the relative decrease from the control value, in per cent.

The subject of the experiment is Plasmodium falciparum. The experiment is described as follows: Primary screen in NF54 nanoGlo assay, in single point, at 2uM, 72h; a lower Z score goes with more inhibition. It counts as functional, Erythrocyte. The settings on record: timepoint 72 hour.
For the compound `CCc1nnc(CN(C)Cc2cc(CN3CCN(C)CC3)c(C)cc2C)o1`, the “% Inhibition” value was -10% and the Z score is given as 1.74.
In the case of `O=C1CN(CCCNC(=O)c2cccc(-c3ccc4occc4c3)c2)CCN1`, the “% Inhibition” value is recorded as -9% and the Z score is 1.27.
On the same counts, the results for `CCc1cc(C(=O)N2CCC(C)CC2)c2c(C3CC3)nn(-c3ccc(F)cc3)c2n1` are 34% and -4.51.
In the case of `O=c1nc(CNc2ccccc2)[nH]n1Cc1nnnn1-c1ccccc1`, the “% Inhibition” value is on record as 7% and the Z score is listed as -0.84.
Taken in the same sequence, the figures for `O=C(NCCc1cccs1)c1nnn2c1CO[C@H](c1ccccc1)C2` were 6% and -1.18.
In the case of `CCN(CC)S(=O)(=O)NCc1ccco1`, the “% Inhibition” value is listed as -10% and the Z score was found to be 1.24.
Taken in the same sequence, the figures for `CC[C@@H](CO)Nc1ncc2cc3ccccc3nc2c1C#N` were 36% and -4.67.
Consider `Cc1ccc(C(=O)N2CCC[C@@H]2COc2ccc(C(=O)N3CCOCC3)cc2)c(C)c1`, for which the “% Inhibition” value is listed as -3% and the Z score is listed as 0.56.
On the same counts, the results for `Cc1cc(=O)c(C(=O)N2CCN(C/C=C/c3ccccc3)CC2)c(Cc2ccccc2F)n1C` are 1% and -0.13.
Taken in the same sequence, the figures for `CS(=O)(=O)N1CCN(CCNC(=O)c2ccc(Br)o2)CC1` were -5% and 0.91.
Turning to `O=C(CNC(=O)c1ccc(=O)[nH]c1)NCC1CCCCC1`, the “% Inhibition” value was -23% and the Z score was 3.32.
On the same counts, the results for `Cc1nc(C(=O)N2CCC[C@@]3(CCC(=O)N(Cc4ccncc4)C3)C2)cs1` are -1% and 0.14.
`COc1ccc(C(=O)N[C@H]2CCN(c3cc(-c4ccc(Cl)cc4)n[nH]3)C2)c(C)c1`: the “% Inhibition” value is -20% and the Z score was 2.
Taken in the same sequence, the figures for `O=C(c1cc(C(=O)N2CCC(=O)N3CCC[C@@H]32)c[nH]1)N1CCCC1` were 7% and -0.85.
On the same counts, the results for `C[C@H](O)c1cccc(N(C)Cc2cnn(-c3ccccc3)c2)n1` are -13% and 1.64.
As for `O=C(c1ccc2nonc2c1)N1CCN(c2ccc3[nH]ncc3c2)C(=O)C1`, the “% Inhibition” value is recorded as -4% and the Z score was 0.37.
Taken in the same sequence, the figures for `CC(C)CC(=O)NCc1nccc(N(C)C)n1` were -3% and 0.49.
Consider `Cc1cc(C)nc(Nc2nc(C(=O)NCCc3c[nH]c4ccccc34)cs2)n1`, for which the “% Inhibition” value is reported as -16% and the Z score amounted to 2.99.
Taken in the same sequence, the figures for `Cc1ccc(-c2nc(CN(Cc3ccccc3)CC3CC3)c(C)o2)o1` were -13% and 1.87.
In the case of `Cc1ccc(N2C(=O)N(CC(=O)OC(C)(C)C)S(=O)(=O)c3cccnc32)cc1F`, the “% Inhibition” value is listed as -7% and the Z score is 1.12.
On the same counts, the results for `O=C(c1ccc(-n2cnnn2)cc1)N1CCOCC1` are -2% and 0.35.
Regarding `O=C(Nc1ccc2c(c1)OCO2)c1ccc2ncsc2c1`, the “% Inhibition” value was -2% and the Z score turned out to be 0.13.
Turning to `CC[C@@H](c1cccnc1)N(C)C(=O)c1ccc(-c2nc(C)c(C)cc2C#N)cc1`, the “% Inhibition” value is reported as -8% and the Z score was 1.39.
For `CC(C)CN(Cc1cc(-c2cccs2)on1)C(=O)C(C)C`, the “% Inhibition” value is given as -10% and the Z score came out at 1.34.
For `NCc1ccc(COCc2ccccc2)cc1`, the “% Inhibition” value was -6% and the Z score is on record as 0.87.
Taken in the same sequence, the figures for `CC(=O)N1CCOC[C@H]1C(=O)N1CCC(c2nc3cc(Cl)ccc3s2)CC1` were -13% and 1.61.
As to `O=C(Nc1ccc(NCc2ccccc2)c(Cl)c1)[C@H]1CCS(=O)(=O)C1`, the “% Inhibition” value is recorded as -3% and the Z score was determined as 0.32.
For `CC(=O)N[C@H]1C[C@@H](CCc2ccccc2)O[C@@H](CC(C)C)C1`, the “% Inhibition” value is given as -9% and the Z score came out at 1.01.
On the same counts, the results for `O=S(=O)(NCCCN1CCN(CCCNS(=O)(=O)c2ccc(Cl)cc2)CC1)c1ccc(Cl)cc1` are 31% and -3.53.
As for `COCC[C@]1(NC(=O)c2ccc(F)cc2)CCN(C(=O)c2ccncc2)C1`, the “% Inhibition” value came out at 1% and the Z score is reported as -0.17.
With `CC12CCC(C(=O)N3CCN(C(=O)C45CCC(C)(C(=O)C4)C5(C)C)CC3)(CC1=O)C2(C)C`, the “% Inhibition” value is listed as -6% and the Z score amounted to 0.77.
Regarding `Cc1c(OCC(=O)Nc2ccc3c(c2)OCO3)c(=O)ccn1CCO`, the “% Inhibition” value is -3% and the Z score was determined as 0.38.
For the compound `Cc1cccc(C)c1NC(=O)C(=O)NCCc1nccn1C(F)F`, the “% Inhibition” value is on record as 1% and the Z score was -0.08.
Taken in the same sequence, the figures for `CN(C)CCN(C(=O)[C@H]1CC1(Cl)Cl)c1ccc(Br)cn1` were 0% and 0.04.
Taken in the same sequence, the figures for `CCC(=O)Nc1ccc(-n2nc(OCCc3ccc(OC)cc3)nc2-c2ccccc2F)cc1` were -25% and 2.23.
Taken in the same sequence, the figures for `CN(Cc1csc(-c2ccccc2)n1)c1nc(CO)cs1` were -3% and 0.38.
For `CC[C@H](C)NC(=O)N1CCc2c(c(-c3nc(Cc4ccccc4)no3)nn2C)C1`, the “% Inhibition” value is on record as -2% and the Z score was 0.36.
As to `CC(C)n1ncc(NC(=O)NC[C@@H](CO)C2CC2)c1C1CC1`, the “% Inhibition” value is -3% and the Z score is 0.26.
Taken in the same sequence, the figures for `O=C(NCCn1ncccc1=O)c1c[nH]c(=O)n(Cc2ccccc2Cl)c1=O` were -17% and 2.88.
On the same counts, the results for `COc1ccc(C(=O)N2CCC(c3nccn3CC3CCC3)CC2)c(F)c1F` are -19% and 2.74.
On the same counts, the results for `O=C(Nc1cccnc1)Nc1cccnc1` are -4% and 0.54.
`CCCc1cc(C(=O)N2CCC3(CC2)C(=O)NC(=O)N3CC)n(C)n1`: the “% Inhibition” value is -12% and the Z score amounted to 1.13.
Consider `COc1cc(CNC2CCCCCCC2)cc(Cl)c1OCC(N)=O`, for which the “% Inhibition” value is reported as -4% and the Z score is on record as 0.43.
Taken in the same sequence, the figures for `Cc1ccccc1-n1nc(CN2CCOCC2)c(-c2ccccc2)c1N` were -7% and 0.8.
Regarding `COCCN1CC[C@H](C(=O)Nc2ccnn2C2CCCC2)C1`, the “% Inhibition” value is given as -13% and the Z score turned out to be 2.41.
On to `Cc1ccccc1OC1(C(=O)O)CCN(C(=O)[C@@H]2CCCCN2)CC1`, for which the “% Inhibition” value is listed as 5% and the Z score is -0.83.
On the same counts, the results for `O=C(NCCc1ccoc1)c1ccccc1Cl` are -4% and 0.66.
Taken in the same sequence, the figures for `COC[C@H]1CN(C2CCC2)CC12CCN(C(=O)c1ccccc1C)CC2` were 8% and -0.91.
Taken in the same sequence, the figures for `Cc1nnsc1C(=O)NC1CCCCCCC1` were 3% and -0.36.
For the compound `Cc1cc(C)c(OCCNC(=O)N2CCC3(CCC(=O)N3)CC2)c(C)c1`, the “% Inhibition” value is on record as -12% and the Z score stood at 1.34.
Taken in the same sequence, the figures for `CC1CC(NC(c2cccc(Cl)c2)C(F)F)CCO1` (stereo not drawn) were -6% and 0.69.
On to `Cc1noc(C)c1CCC(=O)NC1(c2cccs2)CCOCC1`, for which the “% Inhibition” value is 4% and the Z score is listed as -0.56.
On the same counts, the results for `CN(C[C@@H]1CCCN1C(=O)OC(C)(C)C)C1(C(N)=O)CCCC1` are -9% and 0.91.
For the compound `CCn1cc(Cl)c(C(=O)N(C)CC2(C)CCOCC2)n1`, the “% Inhibition” value is reported as 8% and the Z score was -1.43.
On to `CCOC(=O)CN(C)C(=O)C1c2c[nH]nc2CCC1C` (stereo not drawn), for which the “% Inhibition” value stood at 5% and the Z score is given as -0.67.
In the case of `CN(CCc1ccccn1)Cc1cn2cc(Cl)ccc2n1`, the “% Inhibition” value was determined as 1% and the Z score is -0.07.
Consider `COC(=O)[C@@H](NC(=O)c1cc(-c2cccc(Cl)c2)nn1C)C(C)C`, for which the “% Inhibition” value is on record as -11% and the Z score came out at 1.61.
On the same counts, the results for `CN1CCC(CCO)(NC(=O)c2ccc(F)c3occc23)CC1` are 4% and -0.48.
Taken in the same sequence, the figures for `COc1ccc(C(=O)N[C@H]2CCOC[C@@H]2OCc2ccccc2)c(OC)c1` were -1% and 0.16.
As for `CN(CCc1noc(-c2cc3cc(Cl)ccc3[nH]2)n1)C(=O)c1ccc(N(C)C)cc1`, the “% Inhibition” value is -4% and the Z score was found to be 0.66.
On the same counts, the results for `COc1ccc(NC(=O)c2occc2-c2ccccc2)cc1S(=O)(=O)N1CCCCC1` are -22% and 1.89.
On the same counts, the results for `Cc1cc(N2CCN(Cc3ccc(C#CC(C)(C)O)s3)CC2)cc(C)n1` are -2% and 0.31.
In the case of `O[C@H]1CN(Cc2nccs2)C[C@@H]1N1CCCCC1`, the “% Inhibition” value was determined as 9% and the Z score was -0.92.
Take `COc1cc(-c2nc(Cc3ccc4c(c3)OCO4)no2)ccc1O`: the “% Inhibition” value is reported as -6% and the Z score is 1.09.
Taken in the same sequence, the figures for `CCCN(CCc1nc(-c2ccccc2)no1)C(=O)c1cccs1` were -17% and 2.09.
Taken in the same sequence, the figures for `O=C(NCc1cncc(-c2ccoc2)c1)C1CCCC1` were 11% and -1.4.
Taken in the same sequence, the figures for `CC(C)c1cc(C(=O)N2CCCC2)nn1C` were -7% and 0.99.
Consider `C[C@@H]1N(CCC2(O)CCC2)CCOC1(C)C`, for which the “% Inhibition” value is recorded as -3% and the Z score is 0.28.
Taken in the same sequence, the figures for `Cc1noc(C2(NC(=O)Nc3ncn(C(C)(C)C)n3)CCOCC2)n1` were -11% and 2.29.
On the same counts, the results for `Cc1ccc(C(=O)N2CCCN(C(=O)CC[C@@H]3NC(=O)NC3=O)CC2)s1` are -8% and 1.17.
On the same counts, the results for `O=C(c1ccc(F)cc1Cl)N1CCCC(CN2CCC(O)C2)C1` (stereo not drawn) are 1% and -0.18.
With `Cc1nc(CC(=O)N2CCN(c3nonc3C)CC2)cs1`, the “% Inhibition” value is -10% and the Z score turned out to be 1.05.
In the case of `O=C(NC[C@H]1CCCN(c2cnsn2)C1)c1ccccn1`, the “% Inhibition” value was -4% and the Z score amounted to 0.79.
Taken in the same sequence, the figures for `CCN1CCN(Cc2cc(C)cc(CN(C)[C@@H](C)c3cccs3)c2C)CC1` were -5% and 0.68.
Taken in the same sequence, the figures for `Cc1noc(C)c1CN1C(=O)N[C@@]2(CCCCc3ccccc32)C1=O` were -10% and 1.29.
Taken in the same sequence, the figures for `Cc1ncsc1CNc1nc(-c2cccnc2)no1` were 0% and 0.03.
For the compound `C[C@H](NS(C)(=O)=O)C(=O)N(Cc1ccccc1F)C1CCC1`, the “% Inhibition” value is -1% and the Z score was determined as 0.15.
Taken in the same sequence, the figures for `COc1cc(C(=O)O)cc(C(=O)NCc2ccc3c(c2)nc(C)n3C)c1` were -1% and 0.25.
On the same counts, the results for `O=S(=O)(N[C@H]1CCN(CC(F)(F)F)C1)c1ccc2cn[nH]c2c1` are -9% and 1.34.
In the case of `CC(=O)N[C@H]1[C@H](Oc2ccc3ccccc3c2)O[C@@H]2COC(C)(C)O[C@H]2[C@@H]1O`, the “% Inhibition” value was -10% and the Z score worked out at 0.9.
Taken in the same sequence, the figures for `O=C(CN1C(=O)CCc2cc(Br)ccc21)Nc1ccc(CN2CCCCC2)cc1` were -5% and 0.65.
As to `CC[C@H](C)NC(=O)COc1ccc(Cl)cc1C(N)=O`, the “% Inhibition” value is on record as -8% and the Z score was determined as 0.84.
With `Cc1ccc(N=C2N[C@@](c3ccccc3)(C(F)(F)F)Oc3ccccc3O2)cc1`, the “% Inhibition” value was determined as 18% and the Z score was -2.73.
`O=C(NC1CC1)c1cn2c(n1)C(=O)N[C@H](c1ccc(F)cc1)C2`: the “% Inhibition” value was -19% and the Z score was determined as 3.57.
